What all share (test): co-IP; ectopically expressed tagged proteins in HEK293T; lysis in NETN buffer (20 mM Tris-HCl pH 7.5, 1 mM EDTA, 100 mM NaCl, 0.5% NP-40); anti-FLAG or anti-HA affinity beads, 3 h, 4 °C; washes with NETN with 200 mM NaCl; western blotting
For orientation: In western blotting, separated proteins are transferred to a membrane and probed.

Chains of the proteins cited; added tags and fusions are not shown.
UniProt Q06609: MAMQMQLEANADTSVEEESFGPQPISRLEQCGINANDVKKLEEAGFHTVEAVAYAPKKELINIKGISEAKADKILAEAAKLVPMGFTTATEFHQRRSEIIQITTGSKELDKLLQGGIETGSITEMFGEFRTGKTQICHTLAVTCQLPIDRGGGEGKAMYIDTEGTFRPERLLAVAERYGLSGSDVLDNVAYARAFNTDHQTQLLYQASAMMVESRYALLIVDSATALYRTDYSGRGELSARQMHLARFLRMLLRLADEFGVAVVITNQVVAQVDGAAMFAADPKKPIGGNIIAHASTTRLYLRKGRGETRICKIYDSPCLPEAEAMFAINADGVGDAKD

In one test the target is T1, RFWD3-HA (UniProt Q6PCD5).
T1 sequence: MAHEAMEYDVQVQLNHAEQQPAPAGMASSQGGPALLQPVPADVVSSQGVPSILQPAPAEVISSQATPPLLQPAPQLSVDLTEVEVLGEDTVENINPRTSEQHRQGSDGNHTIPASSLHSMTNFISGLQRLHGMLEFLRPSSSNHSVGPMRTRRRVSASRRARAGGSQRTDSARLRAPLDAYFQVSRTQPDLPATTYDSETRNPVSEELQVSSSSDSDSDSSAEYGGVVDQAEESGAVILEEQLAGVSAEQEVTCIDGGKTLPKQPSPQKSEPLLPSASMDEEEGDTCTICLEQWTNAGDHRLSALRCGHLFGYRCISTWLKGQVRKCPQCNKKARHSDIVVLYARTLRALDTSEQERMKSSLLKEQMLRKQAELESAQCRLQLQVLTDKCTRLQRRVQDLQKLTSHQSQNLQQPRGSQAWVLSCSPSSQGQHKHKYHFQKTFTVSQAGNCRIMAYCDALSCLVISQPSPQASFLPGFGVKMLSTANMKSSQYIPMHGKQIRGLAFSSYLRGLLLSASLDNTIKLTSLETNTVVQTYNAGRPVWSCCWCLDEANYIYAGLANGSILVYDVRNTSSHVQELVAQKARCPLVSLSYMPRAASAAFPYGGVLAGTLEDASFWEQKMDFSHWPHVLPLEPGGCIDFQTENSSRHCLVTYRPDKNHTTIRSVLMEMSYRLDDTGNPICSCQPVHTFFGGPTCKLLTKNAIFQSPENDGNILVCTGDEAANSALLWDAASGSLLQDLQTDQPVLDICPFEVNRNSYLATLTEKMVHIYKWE

For the next test, the target named is RAD51-HA (UniProt Q06609).
The next test concerns the target T2, FLAG-PP4R3A (UniProt Q6IN85).
T2 sequence: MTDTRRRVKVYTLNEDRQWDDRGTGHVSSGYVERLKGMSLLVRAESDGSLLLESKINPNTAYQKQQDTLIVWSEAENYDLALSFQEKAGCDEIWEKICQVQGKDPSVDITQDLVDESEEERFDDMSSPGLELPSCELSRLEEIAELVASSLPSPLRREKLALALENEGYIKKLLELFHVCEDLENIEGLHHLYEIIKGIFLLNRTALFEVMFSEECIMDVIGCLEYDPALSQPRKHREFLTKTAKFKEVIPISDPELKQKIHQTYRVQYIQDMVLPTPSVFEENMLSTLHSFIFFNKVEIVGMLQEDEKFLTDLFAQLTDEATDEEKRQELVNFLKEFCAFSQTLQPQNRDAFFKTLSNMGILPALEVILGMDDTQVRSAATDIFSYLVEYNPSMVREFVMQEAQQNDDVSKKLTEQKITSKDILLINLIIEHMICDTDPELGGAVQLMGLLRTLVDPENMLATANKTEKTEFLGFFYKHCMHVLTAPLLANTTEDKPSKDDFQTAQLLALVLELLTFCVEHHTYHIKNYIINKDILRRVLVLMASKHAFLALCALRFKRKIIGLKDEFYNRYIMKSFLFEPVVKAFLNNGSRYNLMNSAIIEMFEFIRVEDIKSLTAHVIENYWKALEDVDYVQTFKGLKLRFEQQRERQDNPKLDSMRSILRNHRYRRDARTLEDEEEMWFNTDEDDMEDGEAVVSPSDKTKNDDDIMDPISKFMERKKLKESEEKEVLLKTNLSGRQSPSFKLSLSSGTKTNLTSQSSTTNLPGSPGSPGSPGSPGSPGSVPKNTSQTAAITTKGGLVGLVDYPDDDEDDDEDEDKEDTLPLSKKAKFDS

Data on five molecules can be found in article PMC12677587.

These are yes or no findings as the source states them, for the method shown. In cells and extracts the contact can be indirect. Some results given as binding are weak or reduced against the parent protein; the word gives no strength. Tags and fused reporters may be left off the sequences shown.

B1: FLAG-UHRF1 (protein, UniProt Q96T88-1 1-793)
chain: MWIQVRTMDGRQTHTVDSLSRLTKVEELRRKIQELFHVEPGLQRLFYRGKQMEDGHTLFDYEVRLNDTIQLLVRQSLVLPHSTKERDSELSDTDSGCCLGQSESDKSSTHGEAAAETDSRPADEDMWDETELGLYKVNEYVDARDTNMGAWFEAQVVRVTRKAPSRDEPCSSTSRPALEEDVIYHVKYDDYPENGVVQMNSRDVRARARTIIKWQDLEVGQVVMLNYNPDNPKERGFWYDAEISRKRETRTARELYANVVLGDDSLNDCRIIFVDEVFKIERPGEGSPMVDNPMRRKSGPSCKHCKDDVNRLCRVCACHLCGGRQDPDKQLMCDECDMAFHIYCLDPPLSSVPSEDEWYCPECRNDASEVVLAGERLRESKKKAKMASATSSSQRDWGKGMACVGRTKECTIVPSNHYGPIPGIPVGTMWRFRVQVSESGVHRPHVAGIHGRSNDGAYSLVLAGGYEDDVDHGNFFTYTGSGGRDLSGNKRTAEQSCDQKLTNTNRALALNCFAPINDQEGAEAKDWRSGKPVRVVRNVKGGKNSKYAPAEGNRYDGIYKVVKYWPEKGKSGFLVWRYLLRRDDDEPGPWTKEGKDRIKKLGLTMQYPEGYLEALANREREKENSKREEEEQQEGGFASPRTGKGKWKRKSAGGGPSRAGSPRRTSKKTKVEPYSLTAQQSSLIREDKSNAKLWNEVLASLKDRPASGSPFQLFLSKVEETFQCICCQELVFRPITTVCQHNVCKDCLDRSFRAQVFSCPACRYDLGRSYAMQVNQPLQTVLNQLFPGYGNGR
Take B1: the binding entry in the test with RFWD3-HA and with RAD51-HA was “binds” in each case.

B2: UHRF1^FP2A-HA (protein, UniProt Q96T88-1 1-793)
chain: MWIQVRTMDGRQTHTVDSLSRLTKVEELRRKIQELFHVEPGLQRLFYRGKQMEDGHTLFDYEVRLNDTIQLLVRQSLVLPHSTKERDSELSDTDSGCCLGQSESDKSSTHGEAAAETDSRPADEDMWDETELGLYKVNEYVDARDTNMGAWFEAQVVRVTRKAPSRDEPCSSTSRPALEEDVIYHVKYDDYPENGVVQMNSRDVRARARTIIKWQDLEVGQVVMLNYNPDNPKERGFWYDAEISRKRETRTARELYANVVLGDDSLNDCRIIFVDEVFKIERPGEGSPMVDNPMRRKSGPSCKHCKDDVNRLCRVCACHLCGGRQDPDKQLMCDECDMAFHIYCLDPPLSSVPSEDEWYCPECRNDASEVVLAGERLRESKKKAKMASATSSSQRDWGKGMACVGRTKECTIVPSNHYGPIPGIPVGTMWRFRVQVSESGVHRPHVAGIHGRSNDGAYSLVLAGGYEDDVDHGNFFTYTGSGGRDLSGNKRTAEQSCDQKLTNTNRALALNCFAPINDQEGAEAKDWRSGKPVRVVRNVKGGKNSKYAPAEGNRYDGIYKVVKYWPEKGKSGFLVWRYLLRRDDDEPGPWTKEGKDRIKKLGLTMQYPEGYLEALANREREKENSKREEEEQQEGGAASARTGKGKWKRKSAGGGPSRAGSPRRTSKKTKVEPYSLTAQQSSLIREDKSNAKLWNEVLASLKDRPASGSPFQLFLSKVEETFQCICCQELVFRPITTVCQHNVCKDCLDRSFRAQVFSCPACRYDLGRSYAMQVNQPLQTVLNQLFPGYGNGR
On to B2, for which, in the test with FLAG-PP4R3A, the binding result was “no binding”.

B3: FLAG-UHRF1^S661D (protein, UniProt Q96T88-1 1-793)
chain: MWIQVRTMDGRQTHTVDSLSRLTKVEELRRKIQELFHVEPGLQRLFYRGKQMEDGHTLFDYEVRLNDTIQLLVRQSLVLPHSTKERDSELSDTDSGCCLGQSESDKSSTHGEAAAETDSRPADEDMWDETELGLYKVNEYVDARDTNMGAWFEAQVVRVTRKAPSRDEPCSSTSRPALEEDVIYHVKYDDYPENGVVQMNSRDVRARARTIIKWQDLEVGQVVMLNYNPDNPKERGFWYDAEISRKRETRTARELYANVVLGDDSLNDCRIIFVDEVFKIERPGEGSPMVDNPMRRKSGPSCKHCKDDVNRLCRVCACHLCGGRQDPDKQLMCDECDMAFHIYCLDPPLSSVPSEDEWYCPECRNDASEVVLAGERLRESKKKAKMASATSSSQRDWGKGMACVGRTKECTIVPSNHYGPIPGIPVGTMWRFRVQVSESGVHRPHVAGIHGRSNDGAYSLVLAGGYEDDVDHGNFFTYTGSGGRDLSGNKRTAEQSCDQKLTNTNRALALNCFAPINDQEGAEAKDWRSGKPVRVVRNVKGGKNSKYAPAEGNRYDGIYKVVKYWPEKGKSGFLVWRYLLRRDDDEPGPWTKEGKDRIKKLGLTMQYPEGYLEALANREREKENSKREEEEQQEGGFASPRTGKGKWKRKSAGGGPSRAGDPRRTSKKTKVEPYSLTAQQSSLIREDKSNAKLWNEVLASLKDRPASGSPFQLFLSKVEETFQCICCQELVFRPITTVCQHNVCKDCLDRSFRAQVFSCPACRYDLGRSYAMQVNQPLQTVLNQLFPGYGNGR
Consider B3, for which the binding result in the test with RFWD3-HA and with RAD51-HA was “binds” in each case.

B4: FLAG-UHRF1^S661A (protein, UniProt Q96T88-1 1-793)
chain: MWIQVRTMDGRQTHTVDSLSRLTKVEELRRKIQELFHVEPGLQRLFYRGKQMEDGHTLFDYEVRLNDTIQLLVRQSLVLPHSTKERDSELSDTDSGCCLGQSESDKSSTHGEAAAETDSRPADEDMWDETELGLYKVNEYVDARDTNMGAWFEAQVVRVTRKAPSRDEPCSSTSRPALEEDVIYHVKYDDYPENGVVQMNSRDVRARARTIIKWQDLEVGQVVMLNYNPDNPKERGFWYDAEISRKRETRTARELYANVVLGDDSLNDCRIIFVDEVFKIERPGEGSPMVDNPMRRKSGPSCKHCKDDVNRLCRVCACHLCGGRQDPDKQLMCDECDMAFHIYCLDPPLSSVPSEDEWYCPECRNDASEVVLAGERLRESKKKAKMASATSSSQRDWGKGMACVGRTKECTIVPSNHYGPIPGIPVGTMWRFRVQVSESGVHRPHVAGIHGRSNDGAYSLVLAGGYEDDVDHGNFFTYTGSGGRDLSGNKRTAEQSCDQKLTNTNRALALNCFAPINDQEGAEAKDWRSGKPVRVVRNVKGGKNSKYAPAEGNRYDGIYKVVKYWPEKGKSGFLVWRYLLRRDDDEPGPWTKEGKDRIKKLGLTMQYPEGYLEALANREREKENSKREEEEQQEGGFASPRTGKGKWKRKSAGGGPSRAGAPRRTSKKTKVEPYSLTAQQSSLIREDKSNAKLWNEVLASLKDRPASGSPFQLFLSKVEETFQCICCQELVFRPITTVCQHNVCKDCLDRSFRAQVFSCPACRYDLGRSYAMQVNQPLQTVLNQLFPGYGNGR
Consider B4, for which the binding entry with RFWD3-HA and in the test with RAD51-HA was “binds” throughout.

B5: UHRF1-HA (protein, UniProt Q96T88-1 1-793)
chain: MWIQVRTMDGRQTHTVDSLSRLTKVEELRRKIQELFHVEPGLQRLFYRGKQMEDGHTLFDYEVRLNDTIQLLVRQSLVLPHSTKERDSELSDTDSGCCLGQSESDKSSTHGEAAAETDSRPADEDMWDETELGLYKVNEYVDARDTNMGAWFEAQVVRVTRKAPSRDEPCSSTSRPALEEDVIYHVKYDDYPENGVVQMNSRDVRARARTIIKWQDLEVGQVVMLNYNPDNPKERGFWYDAEISRKRETRTARELYANVVLGDDSLNDCRIIFVDEVFKIERPGEGSPMVDNPMRRKSGPSCKHCKDDVNRLCRVCACHLCGGRQDPDKQLMCDECDMAFHIYCLDPPLSSVPSEDEWYCPECRNDASEVVLAGERLRESKKKAKMASATSSSQRDWGKGMACVGRTKECTIVPSNHYGPIPGIPVGTMWRFRVQVSESGVHRPHVAGIHGRSNDGAYSLVLAGGYEDDVDHGNFFTYTGSGGRDLSGNKRTAEQSCDQKLTNTNRALALNCFAPINDQEGAEAKDWRSGKPVRVVRNVKGGKNSKYAPAEGNRYDGIYKVVKYWPEKGKSGFLVWRYLLRRDDDEPGPWTKEGKDRIKKLGLTMQYPEGYLEALANREREKENSKREEEEQQEGGFASPRTGKGKWKRKSAGGGPSRAGSPRRTSKKTKVEPYSLTAQQSSLIREDKSNAKLWNEVLASLKDRPASGSPFQLFLSKVEETFQCICCQELVFRPITTVCQHNVCKDCLDRSFRAQVFSCPACRYDLGRSYAMQVNQPLQTVLNQLFPGYGNGR
For the molecule B5, the binding entry with FLAG-PP4R3A is “binds”.
